In a collection of fitness landscapes (doi:10.1126/science.1257360):
The other results are listed elsewhere or left out.

B1: PhoQ; a variant is named by its letters at X, in order, P23837 (parent)
chain: MKKLLRLFFPLSLRVRFLLATAAVVLVLSLAYGMVALIGYSVSFDKTTFRLLRGESNLFYTLAKWENNKLHVELPENIDKQSPTMTLIYDENGQLLWAQRDVPWLMKMIQPDWLKSNGFHEIEADVNDTSLLLSGDHSIQQQLQEVREDDDDAEMTHSVAVNVYPATSRMPKLTIVVVDTIPVELKSSYMVWSWFIYVLSANLLLVIPLLWVAAWWSLRPIEALAKEVRELEEHNRELLNPATTRELTSLVRNLNRLLKSERERYDKYRTTLTDLTHSLKTPLXXLQXXLRSLRSEKMSVSDAEPVMLEQISRISQQIGYYLHRASMRGGTLLSRELHPVAPLLDNLTSALNKVYQRKGVNISLDISPEISFVGEQNDFVEVMGNVLDNACKYCLEFVEISARQTDEHLYIVVEDDGPGIPLSKREVIFDRGQRVDTLRPGQGVGLAVAREITEQYEGKIVAGESMLGGARMEVIFGRQHSAPKDE

Variants of: B1
Test: enrichment ratio after two sorts for PhoP signalling (ratio (wild type AVST 3.29)); higher = more functional
Settings: with PhoP (E. coli)

Variant | enrichment ratio
PSMR | ≤ 0.25
QPRQ | ≤ 0.25
AEFF | 1.23
NIAT | ≤ 0.25
DWLW | ≤ 0.25
VCRI | ≤ 0.25
AMHP | ≤ 0.25
RYGE | ≤ 0.25
SNDF | ≤ 0.25
KVAG | ≤ 0.25
DGPD | ≤ 0.25
HYAK | ≤ 0.25
WPDQ | ≤ 0.25
LRHE | ≤ 0.25
PNHG | ≤ 0.25
IAWG | ≤ 0.25
LDHN | 3.73
RPIY | ≤ 0.25
GIVQ | 2.03
PCLC | ≤ 0.25
FEKQ | ≤ 0.25
HTAH | ≤ 0.25
QSNR | ≤ 0.25
ETKP | ≤ 0.25

Variant | enrichment ratio
LMDQ | ≤ 0.25
IIFY | ≤ 0.25
YCEG | ≤ 0.25
KKVK | ≤ 0.25
YHGF | ≤ 0.25
YKYL | 0.524
PRSR | ≤ 0.25
IWWQ | ≤ 0.25
TTCC | 11.5
WWRL | ≤ 0.25
KDRS | ≤ 0.25
HSSC | ≤ 0.25
TPLP | ≤ 0.25
YYPW | ≤ 0.25
WHDL | ≤ 0.25
IMQI | ≤ 0.25
EGDD | ≤ 0.25
HPYS | ≤ 0.25
SDYM | ≤ 0.25
GKCN | ≤ 0.25
QVDD | ≤ 0.25
KNIK | ≤ 0.25
ICQS | ≤ 0.25
HFMV | ≤ 0.25

Variant | enrichment ratio
SLHI | ≤ 0.25
TQQY | 15.1
VMGL | ≤ 0.25
RICQ | ≤ 0.25
NSSS | ≤ 0.25
LYSQ | ≤ 0.25
VEFD | ≤ 0.25
MKRD | ≤ 0.25
HPDN | ≤ 0.25
IIYP | ≤ 0.25
LGNE | ≤ 0.25
FIML | 1.84
YDLN | ≤ 0.25
MQQY | ≤ 0.25
HHKN | ≤ 0.25
KGCG | ≤ 0.25
GVGG | ≤ 0.25
NRHH | ≤ 0.25
KMPY | ≤ 0.25
FCDR | ≤ 0.25
AGQT | ≤ 0.25
YDEV | ≤ 0.25
SRSH | ≤ 0.25
NYEA | ≤ 0.25

Variant | enrichment ratio
INHQ | ≤ 0.25
LIHF | ≤ 0.25
YMDK | ≤ 0.25
WFPR | ≤ 0.25
YQKH | ≤ 0.25
IKQI | ≤ 0.25
ACDL | ≤ 0.25
LMFN | ≤ 0.25
YCHL | ≤ 0.25
QQSF | ≤ 0.25
KHQK | ≤ 0.25
FQFI | ≤ 0.25
QAGD | ≤ 0.25
NFMK | ≤ 0.25
GCLP | 0.401
RTIF | ≤ 0.25
GYCP | ≤ 0.25
QHFF | ≤ 0.25
QNAM | ≤ 0.25
ATCA | 5.9
ERTL | ≤ 0.25
GEYS | ≤ 0.25
EQVN | ≤ 0.25
ACMT | 10.1

Variant | enrichment ratio
FREH | ≤ 0.25
ECEY | ≤ 0.25
NHWK | ≤ 0.25
EATW | ≤ 0.25
QPNG | ≤ 0.25
LWSQ | ≤ 0.25
HRMR | ≤ 0.25
LTDH | ≤ 0.25
HMTQ | ≤ 0.25
EINR | ≤ 0.25
QMQF | ≤ 0.25
WRPY | ≤ 0.25
QRTK | ≤ 0.25
IDVK | 0.353
VVHF | ≤ 0.25
SCFG | ≤ 0.25
TCGK | ≤ 0.25
IRGN | ≤ 0.25
PPRW | ≤ 0.25
YVIS | ≤ 0.25
SWPC | ≤ 0.25
KMQY | ≤ 0.25
VRWY | ≤ 0.25
QLEL | ≤ 0.25

Variant | enrichment ratio
DHEL | ≤ 0.25
VWAR | ≤ 0.25
VFGG | ≤ 0.25
HKYQ | ≤ 0.25
VECL | 2.59
GKFI | 0.807
WSRQ | ≤ 0.25
TLCW | ≤ 0.25
EQTW | ≤ 0.25
PLFP | ≤ 0.25
QMDH | 15
LLIH | ≤ 0.25
TSHE | 5.88
NQWR | ≤ 0.25
IVSM | ≤ 0.25
WSAG | ≤ 0.25
KEQS | ≤ 0.25
PVGS | ≤ 0.25
NQPG | ≤ 0.25
VKMD | ≤ 0.25
VSWP | ≤ 0.25
ISNP | ≤ 0.25
TLRA | ≤ 0.25
LKTV | ≤ 0.25

Variant | enrichment ratio
YMQG | ≤ 0.25
SNNT | 4.52
RNPS | ≤ 0.25
VPMD | ≤ 0.25
AKGA | ≤ 0.25
NGYI | ≤ 0.25
WTKW | ≤ 0.25
HDQW | ≤ 0.25
GKLN | ≤ 0.25
MRIC | ≤ 0.25
GSWN | ≤ 0.25
YLEK | ≤ 0.25
VKTH | ≤ 0.25
MWHC | ≤ 0.25
MSAY | 7.95
TACH | 2.66
RHWR | ≤ 0.25
VKYS | ≤ 0.25
VIKA | ≤ 0.25
TYLS | 0.649
TPRT | ≤ 0.25
MIFG | ≤ 0.25
LTHS | ≤ 0.25
KQRP | ≤ 0.25

Variant | enrichment ratio
MCGT | 4.92
TIWW | ≤ 0.25
IEFA | ≤ 0.25
QLQI | ≤ 0.25
EICL | ≤ 0.25
WGHS | ≤ 0.25
DVAN | ≤ 0.25
KSGY | ≤ 0.25
HKEY | ≤ 0.25
TSKG | ≤ 0.25
QEVQ | ≤ 0.25
KFME | ≤ 0.25
PYFP | ≤ 0.25
IKKQ | ≤ 0.25
YEWL | ≤ 0.25
TSNC | 5.47
YWDK | ≤ 0.25
ITTE | ≤ 0.25
DCLT | ≤ 0.25
FCYG | ≤ 0.25
KTGP | ≤ 0.25
KFFM | ≤ 0.25
RTKH | ≤ 0.25
ATYR | ≤ 0.25

Variant | enrichment ratio
QVST | 0.685
IQCV | ≤ 0.25
STYI | ≤ 0.25
IQSE | ≤ 0.25
QQSW | ≤ 0.25
HAWG | ≤ 0.25
LYWK | ≤ 0.25
ASGC | 2.48
MVCR | ≤ 0.25
PIMG | ≤ 0.25
TTGS | 8.05
GGND | ≤ 0.25
KTGC | ≤ 0.25
AIMV | 5.05
MQTK | ≤ 0.25
EMVP | ≤ 0.25
QDSF | ≤ 0.25
GYSQ | ≤ 0.25
WGAK | ≤ 0.25
QMKG | ≤ 0.25
KGFS | ≤ 0.25
RHPT | ≤ 0.25
VYWL | ≤ 0.25
WCVS | ≤ 0.25

Variant | enrichment ratio
RRAW | ≤ 0.25
WMFR | ≤ 0.25
FHVD | ≤ 0.25
IYVI | ≤ 0.25
GWGD | ≤ 0.25
KVCS | ≤ 0.25
TADG | ≤ 0.25
VGFE | ≤ 0.25
SECP | ≤ 0.25
QQDN | ≤ 0.25
ILQW | ≤ 0.25
AAFH | ≤ 0.25
VGHC | ≤ 0.25
SPSI | ≤ 0.25
WPRC | ≤ 0.25
AGLW | ≤ 0.25
TMAC | 28.2
LSPC | ≤ 0.25
WLLV | ≤ 0.25
LHAY | ≤ 0.25
GEVE | ≤ 0.25
WKPY | ≤ 0.25
EQYI | ≤ 0.25
PVHW | ≤ 0.25

Variant | enrichment ratio
PAKW | ≤ 0.25
YNNT | ≤ 0.25
MGDI | ≤ 0.25
YEQP | ≤ 0.25
NTKL | ≤ 0.25
NWRR | ≤ 0.25
LIMR | ≤ 0.25
ESVQ | ≤ 0.25
EAHA | ≤ 0.25
SWCS | ≤ 0.25
DTKF | ≤ 0.25
QNVV | ≤ 0.25
DRVW | ≤ 0.25
RMGQ | ≤ 0.25
WYGY | ≤ 0.25
AWWD | ≤ 0.25
KFKR | ≤ 0.25
NGKQ | ≤ 0.25
SRSR | ≤ 0.25
NVMS | ≤ 0.25
SPYM | ≤ 0.25
LYPL | ≤ 0.25
GAMP | ≤ 0.25
QGLG | 5.07

Variant | enrichment ratio
HLGR | ≤ 0.25
HPYY | ≤ 0.25
TIFK | ≤ 0.25
FQNI | ≤ 0.25
YFRN | ≤ 0.25
KRHF | ≤ 0.25
YTSH | 1.07
HHYC | ≤ 0.25
IGIQ | ≤ 0.25
VMHL | ≤ 0.25
AFLN | ≤ 0.25
FVTN | ≤ 0.25
FHSN | ≤ 0.25
YQSY | ≤ 0.25
QQLI | 1.28
KHFL | ≤ 0.25
RREG | ≤ 0.25
RMCV | ≤ 0.25
DIYF | ≤ 0.25
RQIR | ≤ 0.25
SVEG | ≤ 0.25
CHRG | ≤ 0.25
GQSH | ≤ 0.25
AHGM | ≤ 0.25

Variant | enrichment ratio
NFNR | ≤ 0.25
NQHK | ≤ 0.25
FWTN | ≤ 0.25
SHFH | ≤ 0.25
IIYY | ≤ 0.25
EYLR | ≤ 0.25
SNPF | ≤ 0.25
VPYI | ≤ 0.25
MVPL | ≤ 0.25
PGVD | ≤ 0.25
TTCP | ≤ 0.25
VSTL | 2.35
RIAI | ≤ 0.25
GSDH | ≤ 0.25
NHRP | ≤ 0.25
ELGY | ≤ 0.25
VGTG | ≤ 0.25
TQHN | ≤ 0.25
